This is an account of results in the supplement of paper PMC3334620.

Over roughly 33,000 sequences, “E-score (-0.5 to 0.5)” has its median near -0.056; the highest 2% begin near 0.38. The list shows a part of the results.

The assay addresses Stb4 (UniProt P50104). Nature of the assay: PBM E-score (8-mer binding enrichment) (E-score (-0.5 to 0.5)); higher = stronger / more preferred TF binding; most listed sequences are background and not binding sites. The settings on record: protein concentration: 200 nM; construct: GST-DNA-binding domain. A digest of the protocol: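 Masliner-normalised scans of fluorescent anti-GST signal were the basis for scoring. That signal came from GST-tagged yeast transcription factors applied at about 100-200 nM to double-stranded universal all-10-mer Agilent arrays on fresh or once-stripped slides. Each ungapped eight-base word, pooled with its reverse complement, received an E-score from the Universal PBM Analysis Suite.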
As for GTATTCGA, the “PBM E-score” value was -0.169.

Consider CCGGAGAC, for which the “PBM E-score” value came out at 0.289.

ACAGACCA: the “PBM E-score” value was -0.108.

For ATAGAACC, the “PBM E-score” value is -0.0706.

Take ACTAGTAT: the “PBM E-score” value is -0.0476.

As for CAGAGGAC, the “PBM E-score” value was -0.137.

With GCGTTGTA, the “PBM E-score” value was -0.267.

As to CCATGAAA, the “PBM E-score” value was -0.0336.

For the sequence CTAGCCAC, the “PBM E-score” value was -0.287.

As to CACGTATA, the “PBM E-score” value is -0.0961.

For the sequence CCTGGGCA, the “PBM E-score” value was -0.264.

For ATTAAGCG, the “PBM E-score” value was -0.147.

On to ACGTCTAT, for which the “PBM E-score” value was -0.141.

In the case of CGTCCGGA, the “PBM E-score” value is 0.3.

GGCAAACC: the “PBM E-score” value turned out to be 0.115.

As to AGCGTTCA, the “PBM E-score” value was -0.0378.

Turning to AAATCTGA, the “PBM E-score” value is -0.0542.

Consider AGCTATGA, for which the “PBM E-score” value was -0.099.

As for CATCGGAC, the “PBM E-score” value came out at 0.259.

With GCGGTGAA, the “PBM E-score” value is -0.079.

As for TAACCTCA, the “PBM E-score” value is -0.139.

Regarding CATACCTC, the “PBM E-score” value is -0.125.

In the case of AGAAAACG, the “PBM E-score” value is 0.0795.

In the case of GGACTCCA, the “PBM E-score” value was determined as 0.0858.

As for CCCCATGA, the “PBM E-score” value is -0.121.

Take CCATCAAG: the “PBM E-score” value was -0.303.

Turning to ACCATCCA, the “PBM E-score” value was -0.0674.

In the case of ATCAGGCA, the “PBM E-score” value was -0.242.

For ACCTCTCT, the “PBM E-score” value is -0.252.

With AGCCTGAC, the “PBM E-score” value is -0.204.

In the case of GCATGTAA, the “PBM E-score” value is -0.223.

Turning to CACATTAA, the “PBM E-score” value was -0.246.

On to TAGATCAA, for which the “PBM E-score” value is -0.189.

For CAATCTGG, the “PBM E-score” value is -0.199.

For AAAGTGAT, the “PBM E-score” value was -0.0394.

As to GACCCACC, the “PBM E-score” value turned out to be 0.0559.

As to GATACCCA, the “PBM E-score” value is -0.188.

For AACGCTCC, the “PBM E-score” value was -0.179.

For the sequence ACTAAAGC, the “PBM E-score” value is -0.195.

For AAAGCGTA, the “PBM E-score” value stood at 0.189.

Regarding GCACGATA, the “PBM E-score” value was 0.0337.

Turning to ACTCATCC, the “PBM E-score” value was found to be 0.113.

As to AAACAGCC, the “PBM E-score” value was found to be 0.0192.

ATGATTGG: the “PBM E-score” value is -0.111.

For GCTACGAA, the “PBM E-score” value is -0.176.

In the case of GACACATA, the “PBM E-score” value was -0.124.

With AGGAACTC, the “PBM E-score” value was -0.0879.

Consider AGTAACGA, for which the “PBM E-score” value was -0.17.

As for AACGCAGC, the “PBM E-score” value is -0.106.

As to AAGGTAGT, the “PBM E-score” value amounted to 0.0685.

Consider CGCTTGAG, for which the “PBM E-score” value is -0.219.

In the case of AAGCGACA, the “PBM E-score” value was -0.099.

Consider AATTTCGT, for which the “PBM E-score” value was -0.0623.

As to AGATAAAA, the “PBM E-score” value was determined as 0.00409.

Regarding CGATATCA, the “PBM E-score” value was -0.0336.

As for GCCGGTGA, the “PBM E-score” value amounted to 0.0548.

For AATCGCCG, the “PBM E-score” value was found to be 0.212.

With CACCGTCC, the “PBM E-score” value amounted to 0.0816.

ATTATATA: the “PBM E-score” value was -0.0872.

As to AGGCCGCA, the “PBM E-score” value is -0.152.

Regarding CCGACACA, the “PBM E-score” value was determined as 0.257.

In the case of CACTCACA, the “PBM E-score” value came out at 0.0246.

Regarding AGGTCCAT, the “PBM E-score” value was -0.0701.

Take TCGCTAAA: the “PBM E-score” value is -0.0444.

As for ACTGTTCA, the “PBM E-score” value amounted to 0.00126.

With AGCGGTAA, the “PBM E-score” value is 0.172.

For the sequence AGTTAGCA, the “PBM E-score” value is -0.0145.

For ACTATACG, the “PBM E-score” value stood at 0.00583.

Consider ATAGGCAC, for which the “PBM E-score” value was -0.166.

As to ACAATAGG, the “PBM E-score” value was -0.0504.

Take ACCAGAGG: the “PBM E-score” value is -0.26.

For AATGCATA, the “PBM E-score” value is -0.0419.

On to AATAAAGA, for which the “PBM E-score” value is -0.0131.

AGTGCGAG: the “PBM E-score” value is -0.133.

Take GACTCCTC: the “PBM E-score” value worked out at 0.075.

For the sequence AGAGGCCA, the “PBM E-score” value is -0.108.

Turning to TCGTCTAA, the “PBM E-score” value is -0.133.

For CCGGGATC, the “PBM E-score” value is 0.384.

On to ATCGTGGG, for which the “PBM E-score” value is -0.0127.

Turning to AGCCCGAT, the “PBM E-score” value was 0.0559.

TGTCCCAA: the “PBM E-score” value is -0.0943.

As for ATAGTCTG, the “PBM E-score” value is -0.241.

For the sequence CGTATCTC, the “PBM E-score” value is 0.113.

As for AGGGCAAG, the “PBM E-score” value was found to be 0.0211.

For the sequence ATACGATG, the “PBM E-score” value was found to be 0.0197.

Consider GCTTCGCA, for which the “PBM E-score” value is -0.173.

For the sequence AACAGGGG, the “PBM E-score” value was -0.00592.

On to GAGCGAGC, for which the “PBM E-score” value was 0.0386.

Take ACGTATGG: the “PBM E-score” value is -0.197.

Turning to ACTTCAAG, the “PBM E-score” value is -0.229.

For ACTGTCTA, the “PBM E-score” value was -0.185.

Consider CACAGCCC, for which the “PBM E-score” value is -0.158.

GTGAAGGA: the “PBM E-score” value was -0.119.

For CAAACCGA, the “PBM E-score” value came to 0.135.
